Experimental data reported in PubChem BioAssay AID1347434 (National Center for Advancing Translational Sciences (NCATS), 2020).
Among all 1,200 compounds or so, about 30 (2%) were called active. This list was built around the results that the source calls inconclusive (neither active nor inactive); the mix of calls is not that of the screen. The call rests on the fitted dose curve; in most records, active means well fitted inhibition curve with a large enough effect; inconclusive means small, poorly fitted or top-dose-only effect; inactive means flat fitted curve, though single readings scatter. A potency beside an inconclusive call is a rough fit, not a confirmed value.

These molecules were tested against Single-stranded DNA cytosine deaminase (Homo sapiens) (UniProt Q9GZX7) (assay: Confirmatory qHTS assay for inhibitors of Activation Induced Cytidine Deaminase (AID): AID signals). Settings: recombinant AID, FRET deamination/UDG coupled fluorescence, 4 h; series mostly up to 115 µM; activity, negative = inhibition: at the top concentration.
In short: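 Read 1 (AID) was measured at 540 ex/590 em after a 30 min NaOH step. The reaction was AID (1 uM, 4/3x stock) with UDG, compound at final 7.32 nM - 114 uM for 10 min, then DJC20/DJC23 substrate for 4 hr at room temperature. A UDG read at 560/665 serves as counterscreen.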
On the % scale 0 is the no-effect control and ±100 the full control effect; potency means the concentration at half of the fitted maximal effect; tags describe the fitted curve by direction and shape.

Sequence of UniProt Q9GZX7 (Q9GZX7 whole entry, looked up): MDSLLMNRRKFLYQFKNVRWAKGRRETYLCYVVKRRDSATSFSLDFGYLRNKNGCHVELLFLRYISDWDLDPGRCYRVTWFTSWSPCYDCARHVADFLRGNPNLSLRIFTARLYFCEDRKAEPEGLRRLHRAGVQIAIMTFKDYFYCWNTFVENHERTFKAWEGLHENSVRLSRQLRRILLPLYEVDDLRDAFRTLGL

Row | Compound | activity, negative = inhibition | Potency
1 | COc1ccc(C(=O)Nc2nc3n(n2)C(c2ccc(Cl)cc2)C=C(c2ccccc2)N3)cc1OC (centres undefined) | inactive: -25.4% | –
2 | Cc1nc2c(C(=O)NC(C)c3ccccc3)cnn2c(C)c1Cc1ccccc1 (centres undefined) | – | inconclusive: 35.5 µM [inhibitor, single point]
3 | CCn1cc(C(=O)NCc2ccccc2)c(=O)c2cc(S(=O)(=O)N3CCCCCC3)ccc21 | – | inconclusive: 14.1 µM [inhibitor, partial curve, poor fit]
4 | CCN1CCN(CCCNC(=O)c2ccc3c(c2)sc2nc(-c4ccc(OC)cc4)cn23)CC1 | – | inconclusive: 31.6 µM [inhibitor, partial curve, poor fit]
5 | COc1cc(/C=C(\C#N)C(=O)Nc2nnc(C(F)(F)F)s2)ccc1OCc1ccc(C(F)(F)F)cc1C(F)(F)F | – | active: 31.6 µM
6 | CCn1c(SCc2ccccc2F)nc(=O)c2c(C(=O)OC)cc(C3CC3)nc21 | – | inconclusive: 31.6 µM [inhibitor, partial curve, poor fit]
7 | Cn1c(=O)c2sccc2n2c(CCCC(=O)Nc3ccc(Oc4ccccc4)cc3)nnc12 | – | inconclusive: 28.2 µM [inhibitor, partial curve, poor fit]
8 | COc1ccc(C(=O)c2sc3nc4c(c(C(F)(F)F)c3c2N)CN(C(C)=O)CC4)cc1OC | inactive: 6.76% | –
9 | CCOC(=O)c1ccc(NC(=O)CSc2ncc(S(=O)(=O)c3ccc(C)c(Cl)c3)c(=O)[nH]2)cc1 | – | inconclusive: 39.8 µM [inhibitor, single point]
10 | Cc1cc2c(cc3c(SCc4cccc(Cl)c4)nnc(C)n32)o1 | inactive: 0.875% | –
11 | COc1ccc(CCNC(=O)Cn2c(=O)c3cccn3c3ccc(F)cc32)cc1OC | – | inconclusive: 35.5 µM [inhibitor, single point]
12 | COc1ccc(C)cc1N(C)C(=O)c1sc2nc3n(c(=O)c2c1C)CCCCC3 | – | inconclusive: 22.4 µM [inhibitor, partial curve, poor fit]
13 | O=S(=O)(NCCc1nnc2ccc(SCc3cccc(Cl)c3)nn12)c1ccccc1 | – | inconclusive: 12.6 µM [inhibitor, partial curve, poor fit]
14 | COc1ccc(Nc2ncc(C(=O)Nc3cccc(OC)c3)c3ccccc23)cc1 | inactive: -1.42% | –
15 | Cc1ccc(Cl)cc1N(C)C(=O)c1sc2nc3n(c(=O)c2c1C)CCCC3 | – | inconclusive: 31.6 µM [inhibitor, partial curve]
16 | O=C(Nc1ccc(F)cc1F)N1CCN(c2ccc(Cl)c(Cl)c2)CC1 | – | inconclusive: 8.91 µM [inhibitor, partial curve, poor fit]
17 | COc1ccc(NCc2nc3ccccc3n2CCOc2ccccc2C)cc1 | inactive: -11.3% | –
18 | CCN(CC)CCNC(=O)c1ccc2c(c1)sc1nc(-c3ccc(F)cc3)cn12 | – | inconclusive: 28.2 µM [inhibitor, single point]
19 | CCOc1cc(CNc2ccc(O)cc2)ccc1OCc1ccc(Cl)cc1 | – | inconclusive: 5.01 µM [inhibitor, full curve, poor fit]
20 | Cc1ccc(CNC(=O)c2ccc3c(c2)nc(C)n3-c2cc(C)cc(C)c2)cc1 | – | inconclusive: 28.2 µM [inhibitor, single point]

Row | Compound | activity, negative = inhibition | Potency
21 | CCC1CCCCN1CCCNC(=O)c1cc2c(Cl)nc3ccccc3c2s1 (centres undefined) | – | inconclusive: 31.6 µM [inhibitor, single point]
22 | Brc1c(Br)c(Br)c2n[nH]nc2c1Br | – | inconclusive: 39.8 µM [inhibitor, single point]
23 | CCc1ccc(C(=O)c2cn(CC(=O)Nc3cccc(OC)c3)c3ccc(OC)cc3c2=O)cc1 | – | inconclusive: 28.2 µM [inhibitor, partial curve, poor fit]
24 | CCOC(=O)c1ccc(N2C(=O)c3[nH]nc(-c4ccccc4)c3C2c2ccc(CC)cc2)cc1 (centres undefined) | inactive: -2.39% | –
25 | CCOc1ccccc1NC(=O)CSc1nc2ccccc2c2nc(CCn3cncc3C)nn12 | – | inconclusive: 35.5 µM [inhibitor, partial curve]
26 | COc1ccc(OCCn2c(C3CC(=O)N(c4ccc(F)cc4)C3)nc3ccccc32)cc1 (centres undefined) | – | inconclusive: 39.8 µM [inhibitor, partial curve, poor fit]
27 | O=S(=O)(NCCc1nnc2ccc(SCc3ccccc3Cl)nn12)c1ccccc1 | – | inconclusive: 15.8 µM [inhibitor, partial curve, poor fit]
28 | O=C(CSc1nc2ccccc2nc1Cc1ccccc1)Nc1ccccc1C(F)(F)F | inactive: 1.65% | –
29 | CCOCCCn1c(=N)c(C(=O)NC(C)c2ccccc2)cc2c(=O)n3cccc(C)c3nc21 (centres undefined) | – | inconclusive: 31.6 µM [inhibitor, single point]
30 | COc1cc(C(c2c(C)[nH][nH]c2=O)c2c(C)[nH][nH]c2=O)ccc1OC(=O)c1cccc(C)c1 | – | inconclusive: 31.6 µM [inhibitor, single point]
31 | COc1ccc(Cn2cc(C(=O)c3ccc(C)cc3)c(=O)c3cc(OC)c(OC)cc32)cc1 | – | inconclusive: 28.2 µM [inhibitor, partial curve]
32 | CCN(C(=O)c1cc2cc3ccc(OC)cc3nc2o1)c1cccc(C)c1 | – | inconclusive: 28.2 µM [inhibitor, partial curve]
33 | CCOC(=O)c1ccc(-n2c(N)c(C(=O)OC)c3nc4ccccc4nc32)cc1 | – | active: 25.1 µM
34 | Cc1cccn2c(=O)cc(COc3cccc(NC(=O)COc4ccc(F)cc4)c3)nc12 | – | inconclusive: 35.5 µM [inhibitor, partial curve]
35 | Fc1ccccc1Cn1c(-c2ccccc2)nc2ccccc21 | – | inconclusive: 31.6 µM [inhibitor, partial curve]
36 | CCN(CCCNC(=O)c1cc2c(Cl)nc3ccccc3c2s1)Cc1ccccc1 | – | inconclusive: 39.8 µM [inhibitor, single point]
37 | CC(C)(C)c1ccc(-c2nc(SCC(=O)Nc3ccc(Cl)cc3)[nH]c(=O)c2C#N)cc1 | – | inconclusive: 56.2 µM [inhibitor, single point]
38 | Cc1cccc(-n2cnc3cc(C(=O)NCc4ccccc4Cl)ccc32)c1 | inactive: -7.99% | –
39 | COc1ccc(-c2nn(C)c3sc(C(=O)NCCN(C)C)cc23)cc1OC | – | inconclusive: 56.2 µM [inhibitor, partial curve, poor fit]
